First the molecules themselves.
B1: LINE1-mini (parent)
chain: GGCAGAGCUCAACACAGCGUGGCAAAGUGGCUGUGGCUAGACUGCC

56 variants from the RNAGym collection of RNA variant scans (doi:10.7554/elife.90254) can be followed below.

The source gives no read counts; variants with many changes may rest on few reads.

The variants in the data set derive from B1. The data set can be described thus: self-cleavage, relative activity (ratio to wild type); higher = more cleavage; in vitro, sequencing; the parent is a self-cleaving ribozyme.
As for GGCAGAGAUCACCACAGCAUGGCAAAGUGGCUGUGGCUAGGCUGCC, the self-cleavage turned out to be 0.04. With GGCAGAGAUCAACUCAGCGUGGCAAAGUGGCUGUGGCUAGACCGCC the figure was 0.87; with GGCAGAGAUCGACACAGCGUGGCAGAGUGGCUGUGGCUAAACUGCC, 0.02. As for GGCAGAGAUCUACACAGCGUGGCAAAGUGGCUGUGGCUAGAAGGCC, the self-cleavage amounted to 0.01. With GGCAGAGAUCUACACAGCGUGGCAAAGUGGCUGUGGCUUGAUAGCC the figure was 0.01; with GGCAGAGAUCACCACAGCGUGGAAAAGUGGCUGUGGCUAAAAUGCC, 0.04.

Consider GGCAGAGAUCCACACAGCUUGGCACAGCGGCUGUGGAUAGACUGCC, for which the self-cleavage was found to be 0.01. For the variant GGCAGAGAUCUAAACAGCGUGGCAAAGUGGCUGUUGGUAGACCGCC, the self-cleavage was determined as 0.04. For GGCAGAGAUCAUCACCGCGUGGCAAAGUGGCUGUGGCUAUACUGCC, the self-cleavage worked out at 0.06.

On to GGCAGAGAUCUACAAAGCGUGGCAAAGUGGCUGUGGCAAGACUGCC, for which the self-cleavage was found to be 0.03. Next, GGCAGAGAUCGAAACAGCGUGGCAAAAUGGCUGUGGCUAGACUGCC: 0.04; GGCAGAGAUCAACGCAGCGUGGCAAAGUGGCUUUGGCUAGACUGCC: 0.08. Consider GGCAGAGAUCAACGCAGAGGGGCAAAGUGGCUGUGGCUAGACUGCC, for which the self-cleavage was 0.12. Regarding GGCAGAGAUCAACACUGGGUGGCAAAGUGGCUGUGGCUAGACUGCC, the self-cleavage is 0.1. Next, GGCAGAGAUCAACUCGGCGCGGCAAAGUGGCUGUGGCUAGACUGCC: 0.09; GGCAGAGAUCAACGCAGCGUGUCAAAGUGUCUGUGGCUAGACUGCC: 0.95. With GGCAGAGAUCAUCUCAGCGUGGCAAAGUGGCUGUGGCUAGACUGCC the figure was 0.1. Next, GGCAGAGAUCAACGCCGCGUGGCAAAGUGUCUGUGGCUAGACUGCC: 0.12; GGCAGAGAUCAACUCAGCGUGGCAAAGUGCCUGUGGCUAGACUGCC: 0.1. Regarding GGCAGAGAUCAUCACAGCGUGGUAAAGUGGCUGUGGCUAGACUGCC, the self-cleavage came to 0.31. For the variant GGCAGAGAUCUACACAGCGUCGCGAAGUGGCUGUGGCUAGACUGCC, the self-cleavage was 0.02. With GGCAGAGAUCAACGCAGCGUGGCAAAGUGGCUAUGGUUAGACUGCC the figure was 0.06; with GGCAGAGAUCGACAAAGCGUGGCAAAGUGGCUGUGGUUAGACUGCC, 0.05; with GGCAGAGAUCGACACAGCGUGGUAAAGUGGCUGUGGCUAGACUGCC, 0.38. With GGCAGAGAUCAUCACAGCUUGGCAAAGUUGCUGUGGCUAGACUGCC the figure was 0.17; with GGCAGAGAUCAACACCGCGUGGCCAAGUGGCUCUGGCUAUACUGCC, 0.14; with GGCAGAGAUCAACCCAGCGUGGCAAAGUGUCUGUGGCUAGACUGCC, 0.21. With GGCAGAGAUCAACACGGCGUGGCAAAGUAGCUGUGGCUAGACUGCC the figure was 0.11; with GGCAGAGAUCAACACGGCGUGGCAAAGUUGCUGUGGUUAGACGGCC, 0.06. For the variant GGCAGAGAUCCACACAGCGUUAUAAAGUGGCUGUGGCUAGACUGCC, the self-cleavage was 0.02. With GGCAGAGAUCAACACUGCGUGGCAAAGUGGCUGUGGCUACACUGCC the figure was 0.11; with GGCAGAGAUCAACUCAGCUUGGCAUAGUGGCUGUGACUAGACUGCC, 0.06; with GGCAGAGAUCCACACAGCGUAGCAAAGUGGCCGUGGCUAGACUGCC, 0.04. Next, GGCAGAGAUCAACACCGCGUAGCAAAGUGGCUGUGGCGAGACUGCC: 0.03; GGCAGAGAUCAACUCAGCGUGGCAAAGUGGCUGUGGCUAGAAUGCC: 0.32; GGCAGAGAUCAGCAUAGCGUGGCAAAGUGGCUGUGGCUAGACUGCC: 0.07. Next, GGCAGAGAUCAACGCAGCGUGGCAAAGUGGGUGAGGCUAGACUGCC: 0.11.

Regarding GGCAGAGAUCAACCCAGCGUGGCAUAGUGGCUGUGGCUAGACUGCA, the self-cleavage amounted to 0.07. Next, GGCAGAGAUCAACGCAGCGCGGCUAAGUGGCUGUGGCUAGACUGCC: 0.05; GGCAGAGAUCAACCCAACGUGGCAACGUGGCUGUGGCUAGACUGCC: 0.07; GGCAGAGAUCAACACGGCGUGGCAAAGUGGUUAUGGUUAGACUGCC: 1.13. Next, GGCAGAGAUCGUCACAGCGUGGUAAAGUGGCUGUGGCGAGACUGCC: 0; GGCAGAGAUCUACACAGAGUGGCAAUGUGGCUGUGGCGUGACUGCC: 0. With GGCAGAUCUCAACACAGCGUGGCAAAGUGGCUGUGGCUAGACGACC the figure was 0.06; with GGCAGAGAUCCACACAGCGUGGCAACGUGGCUAUGGCAAGACUGCC, 0.01; with GGCAGAGAUCAACACGGCGUGGCAAAGUGGCUGUGGAUGGACUGCC, 0.18. As to GGCAGAGAUCAACACGGCGUGGCAAAGUGGCUGUGGGUAGUCUGCC, the self-cleavage came out at 0.19. With GGCAGAGAUCAACUCAGCGUGGCAAAGUGGUUGUGGGUAGACUGCC the figure was 0.04; with GGCAGAGAUCUACACAGCGUGGCAAAGUGGCUGUCGAUAGACUGCC, 0.01; with GGCAGAGAUCAACGCAUCGUGGCUAAGUGUCUGUGGCUAGAGUGCC, 0.24. Next, GGCAGAGAUCCGCACAGCUAGGCAAAGUGGCUGUCGCUAGACUGCC: 0.01; GGCAGAGAUCACCAUAGCGUGGCAAAGUGGCUGUGGCUAGACUGCC: 0.05.

For GGCAGAGAUCGACAGAGCAUUGCAAAGUGGCUGUGGCUAGACUGCC, the self-cleavage turned out to be 0.01.

Consider GGCAGAGAUCUUCACAGCGUGGCAAAGUGGCUGUGGCUAGACUGCC, for which the self-cleavage came to 0.01.

GGCAGAGAUCCUCACAGCGUGGCAAAGUGGCUGUGGCUAGACUGCC: the self-cleavage stood at 0.03.

As for GGCAGAGAUCAACACGGCGUGGCAUAGUGGCUGCGGAUAGACUGCC, the self-cleavage stood at 0.13.
